Source: the supplement of paper PMC10126150
Sequences with one replicate were seen in a single cluster, so their values are uncertain.

Tested on: ATP
Assay: switch fluorescence ratio, 500 uM ATP over buffer (Cy3 cluster intensity, sum of 5 cycles each) (fold (ratio)); higher = stronger signal-on switching upon ATP binding; sequences stand for … in TCGTCGGCAGCGTCAGATGTGTATAAGAGACAGTTTTTTTTTTTTTTTTTTTTTTTTT…TC
Details: aptamer strand: ATP DNA aptamer (quencher-CACCTGGGGGAGTATTGCGGAGGAAGG + anchor), 100 nM annealed; ATP concentration: 500 uM; one replicate
Procedure, shortened: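 Clusters with intensities outside 100-1000 RFU were excluded. The remaining Cy3-labelled switching-strand clusters on a modified Illumina MiSeq flow-cell had been annealed to 100 nM quencher-labelled ATP aptamer and imaged in selection buffer, then after 15 min with 500 uM ATP at 22 °C, for five cycles separated by NaOH stripping and re-annealing. The fluorescence ratio, averaged per switch-domain sequence, is each cluster's summed target-cycle Cy3 intensity over its summed buffer-cycle Cy3 intensity.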
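Note: ATP exposure 15 min at 22 °C before imaging.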

Sequence	switch fluorescence ratio
CTTTTCTTGT	1.04
TTATCAGAA	1.01
ATCAGTTCGT	0.977
CTATTGCGAA	1.04
TTAGCCCTG	1.01
TCCATGAGCT	0.978
GCAGAAAGAT	0.987
GTGTAGGTGC	1.07
TTGAGAGTAG	0.955
GTGTCATCTT	0.976
GCATAGTGA	0.948
GGGCGTCGCA	1.06
ACGGTCT	1.03
GCCAGAACTA	1.02
TTTCTAAAGC	0.989
ATTTGTGAAT	0.985
CAGCTCTGCC	1.02
TACGAGGAAC	1.03
GCATGTGGCG	0.986
GAGAAACATC	0.942
CTGGGACTAG	0.976
ACAAATACTC	1.61
CAAAGTTTTG	1.02

Sequence	switch fluorescence ratio
CCATTGGCTT	1.02
GCTAAATCCA	0.973
TGAAGAGTAC	1.01
CGGTTACGGG	0.985
GATTGGGTG	0.991
TGTTAAACTG	1.02
ACCGATGGCA	0.983
TCTGAAAGGG	1
CGGCTGAGTG	1
TTGGTCTGCT	0.954
CGCACGTGCT	0.986
ATTTTGATTC	1.02
TACTGGACAT	1.18
CGGAAACT	1.02
GTCGAAATTT	1.04
ACAATATCGC	1.04
TTCGAGTTAC	1.2
GTAAATCTTA	1.02
TCCACCCAAC	1.15
CAAGGATGAC	1.05
CGAGACGCTG	1.06
ATGTTTTCAT	0.956
AATAATCCTG	1.03

Sequence	switch fluorescence ratio
TCCATAAAGG	0.99
TTTAAGCCTG	0.965
GACTACGCCA	3.41
GCGTTGGCG	0.982
TAGTAAATAG	1.04
ATGTTCAATG	1.01
CCGGGGCCGT	0.993
CGCCTATTTT	0.988
CAGCCTAGTT	1
GATCGTCTTT	0.996
AAATAGTCTA	0.993
TGATTAGAAT	0.967
GGATAAGGGA	0.992
ATCGTGGGCT	1.04
CTTATTACCT	1.25
GCTAGCTTCC	2.11
TTATCAGTGC	1.02
AATTGTTGAT	1.02
CTAAAATGGG	1.02
CATATCCGGC	1.03
CGAGGTCGGG	0.983
TTCTCATTAC	1.32
TATAGCCAGC	0.985

Sequence	switch fluorescence ratio
TGAACCACAG	1.21
GGGACCCGT	1.07
GGGGGAGCAT	0.955
GGGCACACCG	1.01
GGTCGCAGG	0.979
ATCAAGATGA	0.981
CGTACAGGTT	1.04
GCAGCAAGGA	3.67
CTCAACTAAC	1.2
GGGGAGATGA	1.01
GAATTATGAC	1.03
GCCGTCATTT	1.01
ACTTTTTGGT	0.996
CCATTGGGGG	0.966
TGACGTCA	1.03
AAGGTTTGTC	1.03
AGGACCCCGA	1.04
TTCATATAGC	1.02
ATCAGTATGG	0.981
GGCTTCAGCC	0.979
CTGCCTATTT	0.988
CTGCAATCG	1.34
CTGTTAAATT	1.03

Sequence	switch fluorescence ratio
GGATTGACGT	1.05
CGTGTGCGTG	0.996
GGTAGGAGGC	0.968
CGTAGGCTTG	1.08
CATAGCTCCA	1.04
CTCTGCATGT	4.65
CTAGCTTAGA	0.971
CAGCTCTAAC	1.12
GTTTAATGTC	1.01
TCCACCAGGG	6.13
GCGCTGCCCC	1.21
CTCGTATTTG	1.01
GGCTGTAACG	1.06
GGGGTTCATA	0.999
GCATCCAACG	1.05
GGGATTCGTT	0.975
ATTAGGACT	0.973
CCCCTTGTCA	1.03
GGGATAAGTG	0.978
CACTGACGCT	1.29
TTTACTTGAG	0.975
TCCCTGATTA	0.994
CACCGGATTA	1.15

Sequence	switch fluorescence ratio
CGTCAGAACT	1.02
GATATTCGGC	1.01
AATCTAGCTT	1.01
AAATGTGACC	1.05
AATTTTTAAT	1.01
ACGCTAATCA	1.18
ATGCGAGCGC	0.994
TTGTGTTTGC	1.03
TTTCAGAGTG	1.04
AAGTGAAAGG	0.966
ACCGTAATGT	1.38
CAAATAAAG	1.03
ACTGTTTCG	1.06
AACGGTGGTA	0.991
TGCCTAGTAA	0.998
ATGCTACACG	1.02
AAGTGTTTTT	0.996
ACTCAAAAAT	1.02
ATTATGTAC	1.09
AATTTTTGT	1.01
TTCCACGCC	1.26
TAGATATTA	1
TACTTGATCG	1.02

Sequence	switch fluorescence ratio
GAATCCACGA	1.05
GCTTTGAGGC	0.977
TCATGGTTGC	0.991
AACCTCACAT	1.13
GCCGAATTGC	1.01
TAAAGTCGAA	0.973
CTGGTTGATG	1.02
CCCTGTGACC	1.02
GAGGGGCTGC	1.03
TGACACGCGG	1.02
TGTCAATTCA	0.976
GCAGGTGGTC	0.979
CTCACTCCAC	1.51
AAGCTATGTC	1.06
GATAGGCTGT	1.02
TGATCATAAT	1.01
CAGAGGCTGC	1.12
AGACATCACG	1.22
TCTAGTCTCG	1.05
AGATCACCCC	1.1
